# Experimental data from PubChem BioAssay AID1460 (National Center for Advancing Translational Sciences (NCATS), 2008).
# In all, about 270,000 compounds went through this assay and about 5,800 (2.1%) were called active. The shares of active, inactive and inconclusive entries below differ from those in the screen. Calls follow the shape of the dose curve; as a rule, active = well fitted inhibition curve with a large enough effect; inconclusive = small, poorly fitted or top-dose-only effect; inactive = flat fitted curve, though single readings scatter. Potencies of inconclusive entries are doubtful fits and often do not repeat.
# Molecular target: Microtubule-associated protein tau (Homo sapiens) (UniProt P10636)
# Experiment: qHTS for Inhibitors of Tau Fibril Formation, Thioflavin T Binding; also: nearly all actives have a fitted effect of over 55% in size
# Conditions: recombinant tau K18 P301L, heparin-induced fibrillization, ThT fluorescence; series mostly up to 57.4 µM; activity, negative = inhibition: at the top concentration
# Method in brief: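 Using a mix of unlabeled (15 uM) and Alexa 594-labeled (0.24 uM) tau K18 P301L, heparin-triggered fibrillization over 6 hr at 37 C was scored by ThT fluorescence.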
# % is scaled to controls: 0 for no effect and ±100 for the full control effect; potency is read from the fitted curve at half-maximal effect; tags tell the direction and shape of the fitted curve.
# Chain of UniProt P10636 (P10636 whole entry, looked up): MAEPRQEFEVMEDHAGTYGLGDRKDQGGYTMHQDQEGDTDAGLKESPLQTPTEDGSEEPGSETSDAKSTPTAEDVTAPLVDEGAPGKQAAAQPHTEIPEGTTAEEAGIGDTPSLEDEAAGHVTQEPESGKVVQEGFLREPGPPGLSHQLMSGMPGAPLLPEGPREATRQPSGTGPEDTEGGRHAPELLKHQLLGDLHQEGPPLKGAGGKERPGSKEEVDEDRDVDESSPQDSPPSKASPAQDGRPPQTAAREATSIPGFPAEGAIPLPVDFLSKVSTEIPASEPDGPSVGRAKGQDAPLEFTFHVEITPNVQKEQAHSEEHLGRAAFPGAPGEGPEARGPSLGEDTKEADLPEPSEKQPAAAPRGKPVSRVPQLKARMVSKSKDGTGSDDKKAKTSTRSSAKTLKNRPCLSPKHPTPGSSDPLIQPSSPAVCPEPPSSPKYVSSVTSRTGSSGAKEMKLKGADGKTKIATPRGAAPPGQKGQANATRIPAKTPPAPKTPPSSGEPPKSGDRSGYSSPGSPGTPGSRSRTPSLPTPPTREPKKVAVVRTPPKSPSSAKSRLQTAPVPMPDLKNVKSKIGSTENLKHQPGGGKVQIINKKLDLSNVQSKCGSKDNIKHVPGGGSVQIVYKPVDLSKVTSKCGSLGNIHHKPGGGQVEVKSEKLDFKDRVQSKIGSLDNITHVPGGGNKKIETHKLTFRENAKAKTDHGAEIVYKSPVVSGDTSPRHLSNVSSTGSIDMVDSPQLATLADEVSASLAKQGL
SMILES,Potency,"activity, negative = inhibition"
O=C(Nc1ccc(N2CCN(C(=O)c3ccccc3)CC2)c(Cl)c1)c1cccnc1,"inconclusive: 11.2 µM [inhibitor, partial curve]",
CC(=O)CCc1oc2ccc(NC(C)=O)cc2c1-c1ccc(C)o1,"inconclusive: 31.6 µM [inhibitor, single point]",
CCc1nnc2c3ccccc3nc(Nc3ccc(C(C)=O)cc3)n12,,inactive: -13.7%
COC(=O)C1=C(O)/C(=C\c2ccc(CNS(=O)(=O)c3ccccc3)o2)N=C1C,active: 14.1 µM,
O=C(O)C1C2C=CC(O2)C1C(=O)Nc1ccc2c(c1)OCCO2 (configuration not stated),"inconclusive: 14.1 µM [inhibitor, partial curve]",
CCOC(=O)c1ccc(N=NN(C)C)cc1,"inconclusive: 10 µM [inhibitor, partial curve, poor fit]",
NC1=NC2C(N=C(Br)N2[C@@H]2O[C@H]3COP(=O)(O)O[C@@H]3[C@@H]2O)C(=O)N1 (some centres not stated),,inactive: -5.33%
CCN(CC)CCN1C(=O)C(O)=C(C(=O)c2cccs2)C1c1ccccn1 (configuration not stated),"inconclusive: 17.8 µM [inhibitor, partial curve]",
CCOc1c(Cl)cc(Cl)cc1CNCCNCCO,,inactive: -0.108%
COC(=O)c1c(-c2ccc(Cl)cc2)noc1N1CCN(c2ccc(C)cc2C)CC1,,inactive: -8.27%
Cc1nnc(N/N=C/c2ccco2)n1N,"inconclusive: 28.2 µM [inhibitor, partial curve]",
CCOC(=O)C1=C(CS(=O)(=O)c2cccc(C(F)(F)F)c2)NC(=O)NC1c1cccc(OC)c1 (configuration not stated),,inactive: -10.4%
COc1cc(OC)cc(-c2nnc(SCc3cccc(C(=O)O)c3)o2)c1,,inactive: -12.2%
Cc1ccc(C(=O)O)cc1-c1ccc(/C=C2/NC(=O)N(c3ccccc3)C2=O)o1,active: 28.2 µM,
COc1ccc(-c2cc3nc(C)cc(C)n3n2)cc1,"inconclusive: 20 µM [inhibitor, partial curve]",
Fc1ccc(C(Nc2ccccn2)c2c[nH]c3ccccc23)cc1 (configuration not stated),"inconclusive: 25.1 µM [inhibitor, single point]",
CN(C)c1ccc(/C=N/NC(=O)CCc2c[nH]c3ccccc23)cc1,active: 8.91 µM,
Cc1ccccc1N/N=C/c1sc(=O)n(Cc2cccc(C(=O)O)c2)c1Cl,active: 28.2 µM,
CCOC(=O)c1sc(=S)n(-c2ccc(C)cc2)c1SC,"inconclusive: 31.6 µM [inhibitor, single point]",
Cc1ccc(-c2ccc(/C=N/NC(=O)Cc3nnc(N)s3)o2)cc1Cl,"inconclusive: 11.2 µM [inhibitor, partial curve]",
CC(=O)Nc1ccc(OC(=O)c2ccc(Br)c([N+](=O)[O-])c2)cc1,active: 25.1 µM,
COc1ccc(-c2nn3c(=O)cc(CN4CCN(C(=O)c5ccc(C(C)(C)C)cc5)CC4)nc3s2)cc1,"inconclusive: 2 µM [inhibitor, full curve]",
CC(=O)Cc1nnn(-c2cc(C)on2)n1,,inactive: -0.757%
CC(=O)c1ccc(N2CCN(CCC#N)CC2)c(F)c1,"inconclusive: 39.8 µM [inhibitor, single point]",

SMILES,Potency,"activity, negative = inhibition"
CC(C)C(=O)Nc1ccc2c(c1)nc(CCN1CCN(c3ccccc3)CC1)n2C,,inactive: -11.7%
CCCN1C(=O)S/C(=C\c2ccc(N3CCOCC3)cc2C)C1=O,"inconclusive: 3.55 µM [inhibitor, full curve]",
O=C1CCCC(=O)N1c1ccc(N2CCN(c3ccc([N+](=O)[O-])cc3)CC2)c([N+](=O)[O-])c1,active: 3.98 µM,
O=C1N(Cc2cccc(Cl)c2)C[C@@H]2C[C@@H](c3c[nH]c4ccccc34)N3CCC[C@@]123,"inconclusive: 22.4 µM [inhibitor, partial curve]",
O=S(=O)(NCCSc1ccccc1)c1ccc2c(c1)OCCO2,,inactive: -6.69%
Cc1ccc2cc(C=C(C#N)C#N)c(N3CCCCC3)nc2c1,active: 25.1 µM,
CCc1ccc(OCc2n[nH]c(=S)n2C(C)CCCC(C)C)cc1 (configuration not stated),"inconclusive: 8.91 µM [inhibitor, partial curve]",
Cc1ccc(Nc2c(-c3c[nH]c4ccccc34)nc3cc(C)ccn23)cc1,"inconclusive: 15.8 µM [inhibitor, partial curve]",
COc1ccc(C2CC(=O)c3cc(-c4nc(-c5cccc(Cl)c5)cs4)c(=O)[nH]c3C2)cc1OC (configuration not stated),,inactive: -12.1%
CCOc1ccc(NC(=O)c2ccc(NC(=O)N3CCSc4ncccc43)cc2)cc1,,inactive: -9.25%
CCc1n[nH]c(=S)n1/N=C/c1ccc(N(CC)CC)cc1,"inconclusive: 15.8 µM [inhibitor, partial curve]",
Cc1cccc(N2CCN(c3ncnc4c3nc3n4CCCCC3)CC2)c1C,"inconclusive: 28.2 µM [inhibitor, single point]",
CC(C)OC(=O)CC1C(=O)NCCN1C(=S)NC(=O)c1cccs1 (configuration not stated),,inactive: -23.4%
COc1ccc(NC(=O)Cn2c(=O)n(-c3ccc(OC)c(OC)c3)c(=O)c3ccccc32)cc1,,inactive: -7.22%
COC(=O)Cc1c(C)c2cc(Cl)c(OC(=O)c3ccco3)cc2oc1=O,"inconclusive: 20 µM [inhibitor, partial curve]",
CC(=O)N1CCc2cc(Br)cc(S(=O)(=O)N3CCN(c4cccc(C(F)(F)F)c4)CC3)c21,,inactive: -11.9%
CCCCOc1ccc(-c2nn(-c3ccccc3)cc2C2NC(=O)NC(C)=C2C(=O)OC)cc1 (configuration not stated),"inconclusive: 44.7 µM [inhibitor, single point]",
COc1ccc(Cl)cc1C(=O)Nc1sc2c(c1C(=O)OC(C)C)CCCC2,"inconclusive: 39.8 µM [inhibitor, single point]",
Nc1nnc(CC(=O)N/N=C/c2cc([N+](=O)[O-])cc(Br)c2O)s1,"inconclusive: 22.4 µM [inhibitor, partial curve]",
COc1cccc(CSc2nc3ccccc3c3nc(CCn4c(C)nc5ccccc54)nn23)c1,,inactive: 3.29%
COc1cc(CNn2c(C)n[nH]c2=S)cc(Br)c1OCc1ccc(F)cc1,"inconclusive: 12.6 µM [inhibitor, partial curve]",
C=CCOC(=O)/C(=C\c1ccccc1)NC(=O)c1ccc(C)cc1,,inactive: -2.06%
COc1ccc(-c2ccc(-c3noc(-c4ccco4)n3)c(OC)n2)cc1,"inconclusive: 7.08 µM [inhibitor, full curve]",
